Measured values as given in the supplement of paper PMC10338343.
± gives the standard deviation. The entries are a selection whose mix differs from that of the whole data set.

Test system: MIWI (PIWIL1) piRISC loaded with L1MC piRNA (30 nt)
Experiment: pre-steady-state target cleavage rate (min^-1); MIWI and MILI are mouse PIWI proteins and EfPiwi is from a freshwater sponge; tags in brackets are library labels; higher = faster piRNA-guided slicing of the target
Conditions: guide: L1MC piRNA 5'p-UAACUAAAUACUAUGCAAGCUGUAGGUCCU; auxiliary factor: none (no GTSF1)
Summary of the method: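 Cleave-'n-Seq: a transcribed, DNA-blocked target RNA library (0.1 nM) was mixed with 1 nM active affinity-purified piRISC carrying one synthetic guide, with or without 500 nM GTSF1 partner protein, in HEPES–potassium acetate buffer at 33 °C for 0–8 or 0–960 min. Uncleaved targets were sequenced and normalised to depth and to weakly complementary targets. Three trials were pooled, and k3 was capped at 0.0001 min^-1. The pre-steady-state cleavage rate came from a burst-and-steady-state fit.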

Sequence | pre-steady-state target cleavage rate
UGGUGGUACAGCUUGCAUAGUAUUUAGUUA | 0.0711 ± 0.012
UGGACCUAGAGCUUGCAUAGUAUUUAGUAA | 0.0466 ± 0.011
UCCUGGUACAGCUUGCAUAGAUUUUAGUUA | 0.00539 ± 0.0028
UCCUGGAUGUGCAUUGCAUAGUAUUUAGUUA | 0.0111 ± 0.0032
UCGACCUACAGCUUGCAUAGUAUUUCGUUA | 0.0485 ± 0.0088
UCCUGCUACAGCAUGCAUAGUAUUUAGAUA | 0.00491 ± 0.0026
UCGACCUACAGCUUGCAAGUAUUUAGUUA | 0.00682 ± 0.0023
UCCUGGAUGAGCUUGCAUAGUAUUUAGUCA | 0.0317 ± 0.0075
UCCACCUACAGCUUGCAUAGUUUUUAGAUA | 0.0077 ± 0.0023
UCCUCCUACAGCUUGCAUAGUAUUUAAUUA | 0.0201 ± 0.0033
UCCUCCUUGUGCUUGCAUAGUAUUUAGAAA | 0.00272 ± 0.0017
UCCUGCUACAGCUUGCAAAGUAUUUAGAAA | 0.00338 ± 0.0032
UGGACCUACACCUUGCAUAGUAUUUUCAAA | 0.00389 ± 0.0023
UCCUGGAUCAGCUUGCAUAGAAUUUUGUUA | 0.0144 ± 0.0063
UCGACCUACACCUAGCAUAGUAUUUAGUUA | 0.0188 ± 0.003
UGGACCUACACCUUGCAUAGUAUAUAGUUA | 0.0327 ± 0.007
UCCACCUACAGCUUGCAUAGAAUUUAGUUA | 0.0176 ± 0.0053
UCCUGGAUCAGCUUCGCAUAGUAUUUAGUUA | 0.0119 ± 0.0036
UCCUGGUACAGCUUGCAUUGUAAUUAGUUA | 0.00769 ± 0.0027
UCCUGGAUCAGCUUGCAUAGUUUUUAGAUA | 0.0124 ± 0.0033

Sequence | pre-steady-state target cleavage rate
UCCUGGAACAGCUUGCUUAGAAUUUAGUUA | 0.0129 ± 0.0048
UCCUGCUACAGCUUGCAAAGUAUUAAGUUA | 0.00892 ± 0.0026
UCCUGGAUGUCCUUGCAUGGUAUUUAGUUA | 0.0121 ± 0.0033
UGGACCUAGAGCUUGGAUAGUAUUUAGUUA | 0.0446 ± 0.0094
UCCUGGUACAGCUUGCAUAGUUUUAAGUUA | 0.012 ± 0.0045
UCGUCCUACAGCUUGCAUAGUAUUUACAAA | 0.00463 ± 0.002
UCCUGGAUGAGCAUGCAUAGAAUUUAGUUA | 0.0051 ± 0.0024
AGGACCUACAGCUUGCAUAGUUUUAAGUUA | 0.0231 ± 0.007
UCCUGCUACAGCUUGCAUAGUAUUUACUAA | 0.00613 ± 0.0031
UCCUCCUACAGCUUGCAUAGAAUUUAGUAA | 0.0089 ± 0.003
UGGACGAACAGCUUGCAUAGUAUUUACAAA | 0.0071 ± 0.0022
UCCACCUACAGCUUGCAUAGUACUUAGUUA | 0.0364 ± 0.0054
UCGUCCUACAGCUUGCAUAGUAUUUAGAAA | 0.00751 ± 0.0029
UGGACCUACAGCAUGCAUAGUAUUUACAAA | 0.0036 ± 0.002
AGGUCCUACAGCUAGCAUAGUAUUUAGUUA | 0.0611 ± 0.014
AGGACGUACAGCUUGCAUAGUUUUUAGUUA | 0.037 ± 0.0092
UCCUGGAACUGCUUGCAUAGUAUUUUGUUA | 0.014 ± 0.0033
UCCUGCUACACCUUGCAUAGUAUUAAGUUA | 0.0124 ± 0.0028
UCCUGCUACAGCUUGCAUAGAAUUUAGAAA | 0.00425 ± 0.0023
UCCUUCUACAGCUUGCAUAGUAUUUAGUUA | 0.0527 ± 0.0083
